Here are results for 44 compounds from article PMC4336329 (PLoS ONE, 2015).

Screen size: about 310,000 compounds; about 2,200 (0.71%) showed an effect of 50% or more. The effect is printed as a negative number. The list shows a part of the results.

In the test the target is human ether-à-go-go-related gene (hERG) potassium channel (human, UniProt Q12809). Description: primary screen, population patch clamp on CHO cells stably expressing hERG.
Sequence of human ether-à-go-go-related gene (hERG) potassium channel (Q12809 whole entry, looked up): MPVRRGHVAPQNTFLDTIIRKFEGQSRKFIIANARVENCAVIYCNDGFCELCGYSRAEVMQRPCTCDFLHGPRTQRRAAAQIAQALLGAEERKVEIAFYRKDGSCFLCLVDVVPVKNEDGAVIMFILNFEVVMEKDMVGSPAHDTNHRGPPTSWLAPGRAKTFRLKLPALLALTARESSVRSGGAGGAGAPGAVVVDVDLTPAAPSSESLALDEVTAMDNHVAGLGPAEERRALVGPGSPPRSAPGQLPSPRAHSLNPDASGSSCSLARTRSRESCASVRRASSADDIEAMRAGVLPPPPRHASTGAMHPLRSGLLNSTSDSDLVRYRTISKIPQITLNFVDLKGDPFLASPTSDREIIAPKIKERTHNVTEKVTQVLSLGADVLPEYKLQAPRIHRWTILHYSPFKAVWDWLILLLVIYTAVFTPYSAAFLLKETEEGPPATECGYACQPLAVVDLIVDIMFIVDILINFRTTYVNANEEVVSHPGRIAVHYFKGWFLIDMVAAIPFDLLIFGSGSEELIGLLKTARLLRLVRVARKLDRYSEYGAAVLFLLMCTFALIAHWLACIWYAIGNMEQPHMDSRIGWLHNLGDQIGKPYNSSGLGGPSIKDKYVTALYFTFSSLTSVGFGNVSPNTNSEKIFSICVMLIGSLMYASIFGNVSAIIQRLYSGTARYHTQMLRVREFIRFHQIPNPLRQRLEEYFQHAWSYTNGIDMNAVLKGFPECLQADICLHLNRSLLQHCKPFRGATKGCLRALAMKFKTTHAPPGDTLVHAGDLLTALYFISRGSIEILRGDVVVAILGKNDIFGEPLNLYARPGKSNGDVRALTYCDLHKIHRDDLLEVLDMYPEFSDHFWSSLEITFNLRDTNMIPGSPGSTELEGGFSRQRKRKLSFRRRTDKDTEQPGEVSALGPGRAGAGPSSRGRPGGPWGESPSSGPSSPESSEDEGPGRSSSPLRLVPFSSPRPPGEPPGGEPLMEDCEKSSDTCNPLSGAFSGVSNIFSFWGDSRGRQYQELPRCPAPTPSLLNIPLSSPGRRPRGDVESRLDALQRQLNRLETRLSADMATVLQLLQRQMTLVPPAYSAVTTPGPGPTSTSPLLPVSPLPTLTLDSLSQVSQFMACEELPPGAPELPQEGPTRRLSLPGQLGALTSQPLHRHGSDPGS
With `CCOC(=O)c1nnn(-c2nonc2N)c1-c1ccc(OCC)cc1`, the “hERG current change (%, negative = inhibition) at 1uM” value is 1.8%.

With `CN(C)c1ccc(NC(=O)/C=C/c2c(Cl)cccc2Cl)cc1`, the “hERG current change (%, negative = inhibition) at 1uM” value was determined as 8.79%.

With `Cc1ccc(S(=O)(=O)N(CC(=O)N2CCC(C)CC2)Cc2ccccc2F)cc1`, the “hERG current change (%, negative = inhibition) at 1uM” value is recorded as -12.9%.

For the compound `CCC(C)[C@H](NC(=O)Nc1cccc(Br)c1)C(=O)OC` (some centres unmarked), the “hERG current change (%, negative = inhibition) at 1uM” value is on record as 5.65%.

For the compound `CC(OC(=O)c1ccco1)C(=O)NC1CCCC1` (centres unmarked), the “hERG current change (%, negative = inhibition) at 1uM” value was 5.74%.

As for `CC[C@H](C)[C@H](NC(N)=O)C(=O)Nc1ccc(S(=O)(=O)NC(C)C)cc1`, the “hERG current change (%, negative = inhibition) at 1uM” value is listed as 10.6%.

For the compound `CN(CC(=O)Nc1ccc(F)cc1)C(=O)COC(=O)CCN1C(=O)C2CC=CCC2C1=O` (centres unmarked), the “hERG current change (%, negative = inhibition) at 1uM” value is 10.5%.

With `COc1ccccc1C(=O)Nc1cccc(Oc2c(F)c(F)c(F)c(F)c2F)c1`, the “hERG current change (%, negative = inhibition) at 1uM” value came out at 15.1%.

`CCN(C(=O)COC(=O)C1CCN(S(=O)(=O)c2cccs2)CC1)c1ccccc1`: the “hERG current change (%, negative = inhibition) at 1uM” value stood at 13.7%.

For `Nc1c(C(=O)NCCc2ccccc2)nnn1Cc1ccc(Br)cc1F`, the “hERG current change (%, negative = inhibition) at 1uM” value is listed as 5.23%.

Turning to `CC(C)(C)c1cc(C(=O)N/N=C/c2cc3c(cc2Br)OCO3)n[nH]1`, the “hERG current change (%, negative = inhibition) at 1uM” value is recorded as 12.4%.

Regarding `c1ccc(-n2nnc(-c3cccnc3)n2)cc1`, the “hERG current change (%, negative = inhibition) at 1uM” value worked out at 14.1%.

For the compound `CC(C)(C)c1ccc(C(=O)N/N=C/c2cccc(Cl)c2)cc1`, the “hERG current change (%, negative = inhibition) at 1uM” value was determined as 7.62%.

Turning to `Cc1nc2cc3ccccc3cc2n1C`, the “hERG current change (%, negative = inhibition) at 1uM” value is 7.34%.

As for `CC(=O)N(C(C)=O)c1ncnc2c1c(-c1ccc(Cl)cc1)nn2C(C)(C)C`, the “hERG current change (%, negative = inhibition) at 1uM” value stood at 20.8%.

Take `COC(=O)c1[nH]c(=O)c2ccccc2c1OCc1ccccc1`: the “hERG current change (%, negative = inhibition) at 1uM” value is recorded as 7.9%.

With `COc1ccc(OC)c(NC(=O)COc2coc(CN3CCCc4ccccc43)cc2=O)c1`, the “hERG current change (%, negative = inhibition) at 1uM” value is 7.99%.

`N#CC(C#N)=Cc1c[nH]c(=O)c(C#N)c1Nc1ccccc1`: the “hERG current change (%, negative = inhibition) at 1uM” value stood at 14.4%.

Consider `O=C(COC(=O)c1ccc[nH]c1=O)NCCCc1ccccc1`, for which the “hERG current change (%, negative = inhibition) at 1uM” value is on record as 21.3%.

With `COCc1cc(C)[nH]c(=O)c1C#N`, the “hERG current change (%, negative = inhibition) at 1uM” value was 10.7%.

On to `Cn1c(=O)c2c(ncn2CC(=O)Nc2ccccc2N2CCOCC2)n(C)c1=O`, for which the “hERG current change (%, negative = inhibition) at 1uM” value is -0.0096%.

With `N#CC1=C(SCC(=O)Nc2ccccc2)NC(=O)CC1c1ccc(O)cc1` (centres unmarked), the “hERG current change (%, negative = inhibition) at 1uM” value is reported as -0.709%.

For the compound `CC(=O)c1ccc(-c2nc3ccccc3n2C)o1`, the “hERG current change (%, negative = inhibition) at 1uM” value is reported as 4.15%.

For the compound `COc1ccc(NC(=O)CSc2nnc(COc3ccccc3)n2Cc2ccco2)cc1OC`, the “hERG current change (%, negative = inhibition) at 1uM” value is -6.52%.

For the compound `Cc1cc(NC(=O)CCC(=O)N(CC(=O)NC2CCCC2)Cc2ccco2)no1`, the “hERG current change (%, negative = inhibition) at 1uM” value is given as 21%.

Regarding `CCCc1ccc(OCC(O)CN2CCN(c3ccccn3)CC2)cc1.Cl` (centres unmarked), the “hERG current change (%, negative = inhibition) at 1uM” value is -0.969%.

On to `COc1ccc(C2=NNC(c3cc(Cl)cc4c3OCOC4)C2)c(O)c1` (centres unmarked), for which the “hERG current change (%, negative = inhibition) at 1uM” value stood at 9.9%.

For `CC1CCCCC1NC(=O)COC(=O)c1ccc(N(C)C)cc1` (centres unmarked), the “hERG current change (%, negative = inhibition) at 1uM” value is 9.14%.

`Brc1ccccc1OCCCN1CCOCC1`: the “hERG current change (%, negative = inhibition) at 1uM” value came out at 8.45%.

In the case of `COc1cc(NC(=O)c2cc(-c3cccs3)on2)cc(OC)c1OC`, the “hERG current change (%, negative = inhibition) at 1uM” value is -3.39%.

With `COc1ccc(CCNC(=O)CSCc2ccc([N+](=O)[O-])cc2)cc1OC`, the “hERG current change (%, negative = inhibition) at 1uM” value is recorded as -4.02%.

In the case of `O=C(COC(=O)C1COc2ccccc2O1)Nc1ccc(Cl)cc1` (centres unmarked), the “hERG current change (%, negative = inhibition) at 1uM” value is recorded as 11.7%.

`Cc1ccc(-n2nc3c(=O)n(C(C)C(=O)NCCc4cccs4)nc(C)c3c2C)cc1` (centres unmarked): the “hERG current change (%, negative = inhibition) at 1uM” value is listed as -1.96%.

`CC(=O)c1c(C)n(CCc2ccc(Cl)cc2)c2ccc(O)cc12`: the “hERG current change (%, negative = inhibition) at 1uM” value is 14.6%.

In the case of `O=[N+]([O-])c1cc(C(F)(F)F)cc([N+](=O)[O-])c1Sc1n[nH]c(C(F)(F)F)n1`, the “hERG current change (%, negative = inhibition) at 1uM” value is reported as 11.9%.

As for `COc1ccc(N2CCN(C(=O)CCCNC(=O)Cn3cnc4sc(C)c(C)c4c3=O)CC2)cc1`, the “hERG current change (%, negative = inhibition) at 1uM” value is on record as 11.4%.

As for `CC(=O)Nc1ccc(NS(=O)(=O)c2ccc(C)cc2)cc1[N+](=O)[O-]`, the “hERG current change (%, negative = inhibition) at 1uM” value is 22.1%.

For the compound `CCCCC(=O)Nc1ccc(C(=O)NN2C(=O)c3ccccc3C2=O)cc1`, the “hERG current change (%, negative = inhibition) at 1uM” value turned out to be 5.58%.

`O=C(Nc1nccs1)c1ccc([N+](=O)[O-])cc1`: the “hERG current change (%, negative = inhibition) at 1uM” value is recorded as 4.36%.

Take `O=S(=O)(NC1CC2CCC1C2)c1ccc(Br)s1` (centres unmarked): the “hERG current change (%, negative = inhibition) at 1uM” value is recorded as 7.09%.

Regarding `CCCCN(C(=O)C(CCSC)N1C(=O)c2ccccc2C1=O)c1c(N)n(CCC)c(=O)[nH]c1=O` (centres unmarked), the “hERG current change (%, negative = inhibition) at 1uM” value is reported as 7.61%.

On to `COc1ccc([C@@H]2[C@@H]3C(=O)N(C(C)(C)C)C(=O)[C@@H]3[C@]3(C)C(=O)N(c4cccc(Br)c4)C(=O)N23)cc1`, for which the “hERG current change (%, negative = inhibition) at 1uM” value is given as 14.9%.

Take `COc1ccc(NS(=O)(=O)c2cccs2)cc1S(=O)(=O)N1CCCCC1`: the “hERG current change (%, negative = inhibition) at 1uM” value is -4.47%.

Regarding `CCN(CC)c1nc(OCCNC(=O)Nc2ccccc2)nc(N(CC)CC)n1`, the “hERG current change (%, negative = inhibition) at 1uM” value turned out to be 8.59%.
